# Source: the supplement of paper PMC11417369
# ± gives the standard deviation of the averaged measurements. The list shows a part of the results.
# System: PfAP2-G AP2 domain (GST-tagged)
# Assay: gcPBM binding intensity (ln(normalized median fluorescence intensity)); higher = stronger DNA binding
# Outline: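 Binding intensity is the highest Masliner-normalised natural-log median intensity over replicate spots in either probe orientation. To obtain it, GST-tagged P. falciparum DNA-binding domains made in E. coli were incubated for 1 h on an Agilent 4 × 180k array of primer-extended double-stranded 36-bp intergenic genomic probes plus negative controls. Detection used Alexa488 anti-GST antibody with scanning at 488 nm.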
row,Sequence,gcPBM binding intensity (ln)
1,TACTTATTTGATTGGGTGCATATATATAGTATGTAT [GTGCAC_site9845],10.3 ± 0.3
2,TTATTTATGAGGGTGACACACAAAAGAGTGTTAAGA [CACACA_site277],10.4 ± 0.35
3,AAAAAAAAACACGCATGTACATAAAAATAATCATAC [XGTACX_site1086],11.1 ± 0.56
4,AAATAAAATAAAATAAAATAAAATAAAATAAAATAA [XGTACX_negctrl_site142],9.52 ± 0.042
5,AATAATAATAGAAACACACACACATTTTTAAGAATA [CACACA_site6692],10.01 ± 0.014
6,TGAAAAAAAAAATGCACACGCATACAGATAATATGT [CACACA_site4526],10 ± 0.16
7,TATACGTATACCTATACACACATATATATATATATA [CACACA_site1273],10.2 ± 0.28
8,TATATTCAAAAAAATTCATTTCTGATTTTTTTTTTT [CACACA_negctrl_site1085],9.45 ± 0.18
9,ATTATTGCAATTTAATGTACATAATACAAATTTGCC [XGTACX_site2729],11.2 ± 0.78
10,AATGAATAAATAAACACACACACATATATATATATG [CACACA_site18],10.01 ± 0.085
11,GATGAAATATCATTACGTACACAATAGTTTGTATTT [XGTACX_site5143],11.4 ± 0.97
12,AACATAACAAAAAAAAAAAAAAATATATATATATAT [TGCATGCA_negctrl_site370],9.8 ± 0.44
13,TATTTCACAAAAAAAAAAAAAAAAAAGAAGCAAAAA [CACACA_negctrl_site1040],9.8 ± 0.22
14,GTATATTGTACCATCACACATGTAAAACATAGATGT [CACACA_site5359],10.8 ± 0.52
15,ATGAATGAATACGTTTTACACACTTGAATATAATTT [CACACA_site8237],10.15 ± 0.057
16,TTTTTTTTTAAGTTTGCACACATGGAAGACAAAAAT [CACACA_site2505],10.6 ± 0.53
17,TCCTTAAAAAAACCTTAACACACATAAACTATAATT [CACACA_site9001],9.96 ± 0.042
18,TAATACATAAATAATGTGCACATGGAAATATATCTT,10.4 ± 0.12
19,ACATATATATTATAAGCATGCATGAGAAAATTTTTA [TGCATGCA_site1054],9.83 ± 0.16

row,Sequence,gcPBM binding intensity (ln)
1,AAAAAAAAAAAAAAAACACACATTTGAAGAAAAAAA [CACACA_site7389],10.4 ± 0.22
2,AATTGCTTCAAAATTAAACACACACTAATAAAAAAA [CACACA_site8855],10 ± 0.071
3,TATTTTATATACAGTGGTACTTTTTTTTTTTTTTTT [XGTACX_site2475],11.3 ± 0.9
4,AAAAAAAAAAAAAAATCACACACAATATGAATTTAT [CACACA_site8100],9.92 ± 0.14
5,TTTTCGCTTTTATAAAATTATATGAAAAAACTAAAA [XGTACX_negctrl_site139],9.88 ± 0.18
6,ATTTATATAAAATTAAAATAATACAAATTTATTCAT [GTGCAC_negctrl_site305],9.675 ± 0.049
7,TTATGGAAAAATATAACACACAATGATTTTTTATAA [CACACA_site1831],9.73 ± 0.16
8,TGTAATACATGTTGTTGTACAATATCTTTAACTTTT [XGTACX_site1219],11.1 ± 0.73
9,TATAACTATGGGTGTACACATTAATCGTTTTTCTTT [CACACA_site5196],11.5 ± 0.85
10,TATTGTAAAAAAGCAAAATTTATCACCTCCTTATTT [CACACA_negctrl_site172],9.68 ± 0.11
11,TACACAAAAATAAACACACACACATATAAATAAATA [CACACA_site6599],9.91 ± 0.085
12,CCACTAAAGGCATATACACACATTTTTTAAATTGCC [CACACA_site2839],10.2 ± 0.13
13,TTTTTTACATTCTGCACACAATTTATTTTTTTTTTT [CACACA_site4188],10.03 ± 0.028
14,GATATGGAATATATGTGTACATATATATATATTATA [XGTACX_site1724],11.3 ± 0.88
15,AAAAAAAAAAAAAATACACACACATAAAAAAAAAAA [CACACA_site8555],10.1 ± 0.18
16,ATATATATATATAGAAGTACTCTTATATATTTTATA [XGTACX_site1384],11.3 ± 0.69
17,TTTGTATGATCATAAAGTACTAATTTACATTCAGCA [XGTACX_site8596],10.8 ± 0.49
18,CAAATTTTTAAAAATGCATGTTCATCCATCCCATAT [TGCATGCA_site467],10.2 ± 0.13
19,AAAAATATATATATATTTCTTCTTTGTTAAAATGTA [CACACA_negctrl_site1459],9.62 ± 0.099

row,Sequence,gcPBM binding intensity (ln)
1,TTTTCATTCTTATATAAATATTATTTTATATAAAAT [GTGCAC_negctrl_site674],9.86 ± 0.071
2,ATATATGAAAATATATGTACACAACATATAAAATAG [XGTACX_site5132],11.4 ± 0.83
3,AATTATATACCATGCACACAAATATTCATACAGGAA [CACACA_site4057],10.1 ± 0.16
4,GTAGAATCAGTATTCACACATAAATGTATCCAAATG [CACACA_site5395],10.3 ± 0.25
5,TTTTGGATACTTCATTTGTCCTGTTTTTTTTTTTTA [CACACA_negctrl_site399],10.7 ± 0.37
6,TTTTAAAAAATAAAATATTATTGAAGTAAAATATGA [CACACA_negctrl_site758],9.605 ± 0.007
7,TAGAAACTATGTAATGCACACCAAAATAAAATTATT [CACACA_site8578],10.07 ± 0.035
8,TTTTTTTTTTTTTAAACATGCAAAATATATAATTTT [TGCATGCA_site633],9.77 ± 0.45
9,TAATATATCTATAATACACACTATTCTAATCACATA [CACACA_site6731],9.895 ± 0.092
10,AAAATATATCAAAACACACTCACATATAATACTTAC [CACACA_site6031],9.995 ± 0.007
11,TATATACTTATATACTGTACTCATCATCTTTTAAAG [XGTACX_site6099],11.6 ± 0.79
12,AACACACACATATATATATATATATATATATATATA [GTGCAC_negctrl_site573],9.83 ± 0.21
13,TTTTTAATATTGTATGCATGTCGTAATAAAAAATTT [TGCATGCA_site259],10.2 ± 0.27
14,ATAATAAACATATATGTACACACATATACATATATA [CACACA_site8924],11.3 ± 0.94
15,TTGAACCCCACTAACACACACACGCACGCTCAGAAA [CACACA_site2983],10.3 ± 0.37
16,TGCTATTTCATATTCTGTACTAAAACAAGATAATAA [XGTACX_site3852],11 ± 0.7
17,ATATTAATTATAACTTGTACGTAAAAGGAAAACAAT [XGTACX_site3269],11.6 ± 0.95
18,ATATACTATTAACCACATATGTGTGTTAATTTATAT [GTGCAC_negctrl_site315],10.1 ± 0.27
